Counter-ions that a name gives are not always drawn. This is one part of the list. Most values come without repeats; read them as rough.
What was measured:
OVCAR4 = assay: log2 surviving fraction (library drug vs vehicle, or drug + carboplatin vs carboplatin alone; relative to plate median); ovarian cancer lines: OVCAR4 is platinum-sensitive and Ov4Carbo platinum-resistant; higher = more cell survival; settings: library drug concentration 10 µM, 7 days
Ov4Carbo = assay: as above; settings: library drug concentration 10 µM, 7 days

Structure (SMILES) | log2 surviving fraction (OVCAR4; carboplatin co-treatment 0 µM) | log2 surviving fraction (OVCAR4; carboplatin co-treatment 5 µM) | log2 surviving fraction (Ov4Carbo; carboplatin co-treatment 0 µM) | log2 surviving fraction (Ov4Carbo; carboplatin co-treatment 5 µM)
CN(C)[C@@H]1C(O)=C(C(N)=O)C(=O)[C@@]2(O)C(O)=C3C(=O)c4c(O)cccc4[C@@](C)(O)[C@H]3C[C@@H]12 [Tetracycline HCl] | 0.15 | 0.324 | 0.945 | 0.622
CC1=C(/C=C/C(C)=C/C=C/C(C)=C\C(=O)O)C(C)(C)CCC1 [Isotretinoin] | -1.32 | -1.82 | -0.892 | -1.16
O=C1CC[C@@H](C(=O)N2CSC[C@H]2C(=O)O)N1 [Pidotimod] | 0.721 | 0.898 | 0.436 | -0.392
CC(=O)O[C@H]1C[C@@H]2CC[C@@H]3[C@H](CC[C@@]4(C)[C@H]3C[C@H]([N+]3(C)CCCCC3)[C@@H]4OC(C)=O)[C@@]2(C)C[C@@H]1N1CCCCC1 [Vecuronium Bromide] | 0.446 | -1.35 | 0.442 | 1.24
CC(C)NCC(O)COc1ccc(CCOCC2CC2)cc1 (stereo unspecified) [Betaxolol hydrochloride (Betoptic)] | 0.735 | 0.792 | 0.335 | 0.425
Nc1[nH]cnc2ncnc1-2 [Adenine] | 0.889 | 0.547 | 0.622 | -1.35
CCOC(=O)[C@H](CCc1ccccc1)N[C@H]1CCCN2CCC[C@@H](C(=O)O)N2C1=O [Cilazapril monohydrate (Inhibace)] | 0.674 | 0.365 | 0.644 | 0.305
Nc1cccc2c1C(=O)N(C1CCC(=O)NC1=O)C2=O (stereo unspecified) [Pomalidomide] | 1.11 | 0.0796 | 0.729 | -0.000482
CN(Cc1ccc(C(C)(C)C)cc1)Cc1cccc2ccccc12 [Butenafine HCl] | -0.239 | -0.065 | -0.91 | -0.6
CN(C)CCN(Cc1ccccc1)c1ccccn1 [Tripelennamine HCl] | 0.941 | 0.255 | 0.243 | 0.994
CCCOc1ccc(C(=O)OCCN(CC)CC)cc1N [Proparacaine HCl] | 0.188 | 0.216 | 0.291 | 0.427
CNC(=C[N+](=O)[O-])NCCSCc1csc(CN(C)C)n1 [Nizatidine] | -0.000587 | -0.29 | 0.217 | -0.184
CCc1cccc2c3c([nH]c12)C(CC)(CC(=O)O)OCC3 (stereo unspecified) [Etodolac (Lodine)] | -7.28 | -0.0175 | 0.683 | 0.205
CS(=O)(=O)OCCCCOS(C)(=O)=O [Busulfan (Myleran, Busulfex)] | 0.617 | 0.618 | 0.676 | -0.00112
C[C@@H]1CN(c2c(F)c(N)c3c(=O)c(C(=O)O)cn(C4CC4)c3c2F)C[C@H](C)N1 [Sparfloxacin] | 0.274 | 0.147 | 0.67 | 0.325
CCN1CCN(c2cc(-c3ccc(F)cc3)c3c(n2)CCCCCC3)CC1 [Blonanserin (Lonasen)] | 0.417 | -0.195 | -0.324 | -1
C[N+](C)(C)CCOC(N)=O [Carbachol] | -0.0717 | 0.674 | 0.0379 | 0.832
CN(C)CCN1C(=O)c2ccccc2N(C)c2ccccc21 [Dibenzepine HCl] | -0.0117 | 0.111 | 0.458 | -0.585
c1ccc2c(c1)CCCC2C1=NCCN1 (stereo unspecified) [tetrahydrozoline hydrochloride] | 0.727 | 0.869 | 0.442 | 0.178
CCN(CC)CC#CCOC(=O)C(O)(c1ccccc1)C1CCCCC1 (stereo unspecified) [Oxybutynin (Ditropan)] | 0.519 | -0.36 | -0.553 | -0.342
COc1cccc2c1C(=O)c1c(O)c3c(c(O)c1C2=O)C[C@@](O)(C(C)=O)C[C@@H]3O[C@H]1C[C@H](N)[C@H](O)[C@H](C)O1 [Daunorubicin HCl (Daunomycin HCl)] | -9.7 | -8.54 | -9.13 | -8.47
Nc1[nH]cnc2ncnc1-2 [Adenine sulfate] | 1.27 | 2 | 1.18 | 0.411
CC(=O)S[C@@H]1CC2=CC(=O)CC[C@]2(C)[C@H]2CC[C@@]3(C)[C@@H](CC[C@@]34CCC(=O)O4)[C@H]12 [Spironolactone] | -2.18 | -2.07 | -1.24 | -2.03
CC(C[N+](C)(C)C)OC(N)=O (stereo unspecified) [Bethanechol chloride] | 0.765 | 0.811 | 0.574 | 0.592
CNC(=O)CN(CCN(CCN(CC(=O)O)CC(=O)NC)CC(=O)O)CC(=O)O.O.[Gd] [Gadodiamide (Omniscan)] | 0.274 | 0.983 | -0.204 | 0.243
CN1CCN(CCCN2c3ccccc3Sc3ccc(C(F)(F)F)cc32)CC1 [Trifluoperazine 2HCl] | -2.55 | -1.42 | -4.05 | -3.61
CNCCC(Oc1ccc(C(F)(F)F)cc1)c1ccccc1 (stereo unspecified) [Fluoxetine  HCl] | -2.84 | -7.36 | -4.56 | -4.47
CCOC(=O)C1=C[C@]2(CC)CCCN3CCc4c(n1c1ccccc41)[C@@H]32 [Vinpocetine (Cavinton)] | -0.422 | 0.348 | -0.304 | -0.172
Nc1nc2c(ncn2COC(CO)CO)c(=O)[nH]1 [Ganciclovir] | 0.155 | 0.235 | -0.163 | 0.17

Source: the supplement of paper PMC8047034
